Results on 5 compounds are retold here after PubChem BioAssay (NCATS).

Common to all, as to assay: Confirmatory Screen for Target Class Profiling of Small Molecule Inhibitors of Methyltransferases (AID 1745852);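 also: inhibitor potency for blocking SAH production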
Assay [1] has as its target Catechol O-methyltransferase (Homo sapiens) (UniProt P21964). Conditions: MTase-Glo luminescence, SAH detection, recombinant enzyme; measured here: COMT inhibition potency.
The target in assay [2] is Histamine N-methyltransferase (Homo sapiens) (UniProt P50135). Conditions: MTase-Glo luminescence, SAH detection, recombinant enzyme; measured here: HNMT inhibition potency.
Chain of UniProt P50135 (P50135 whole entry, looked up): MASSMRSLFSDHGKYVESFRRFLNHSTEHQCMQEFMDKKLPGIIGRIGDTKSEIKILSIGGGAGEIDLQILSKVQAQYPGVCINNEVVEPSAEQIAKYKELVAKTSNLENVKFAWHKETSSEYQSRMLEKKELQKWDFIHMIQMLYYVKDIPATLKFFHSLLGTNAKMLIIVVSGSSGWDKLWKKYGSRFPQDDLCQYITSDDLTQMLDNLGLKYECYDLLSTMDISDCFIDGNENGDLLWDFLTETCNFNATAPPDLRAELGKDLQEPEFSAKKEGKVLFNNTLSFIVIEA
The target of assay [3] is Nicotinamide N-methyltransferase (Homo sapiens) (UniProt P40261). Conditions: MTase-Glo luminescence, SAH detection, recombinant enzyme; measured here: NNMT inhibition potency.
Chain of UniProt P40261 (P40261 whole entry, looked up): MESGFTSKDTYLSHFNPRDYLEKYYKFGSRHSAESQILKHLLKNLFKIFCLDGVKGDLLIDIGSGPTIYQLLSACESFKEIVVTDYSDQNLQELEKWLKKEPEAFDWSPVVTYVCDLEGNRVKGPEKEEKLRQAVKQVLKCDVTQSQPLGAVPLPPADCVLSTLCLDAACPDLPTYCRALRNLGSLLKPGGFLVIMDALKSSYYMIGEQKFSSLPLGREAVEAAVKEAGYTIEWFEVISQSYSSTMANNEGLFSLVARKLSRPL
The target in assay [4] is Phenylethanolamine N-methyltransferase (Homo sapiens) (UniProt P11086). Conditions: MTase-Glo luminescence, SAH detection, recombinant enzyme; measured here: PNMT inhibition potency.
Chain of UniProt P11086 (P11086 whole entry, looked up): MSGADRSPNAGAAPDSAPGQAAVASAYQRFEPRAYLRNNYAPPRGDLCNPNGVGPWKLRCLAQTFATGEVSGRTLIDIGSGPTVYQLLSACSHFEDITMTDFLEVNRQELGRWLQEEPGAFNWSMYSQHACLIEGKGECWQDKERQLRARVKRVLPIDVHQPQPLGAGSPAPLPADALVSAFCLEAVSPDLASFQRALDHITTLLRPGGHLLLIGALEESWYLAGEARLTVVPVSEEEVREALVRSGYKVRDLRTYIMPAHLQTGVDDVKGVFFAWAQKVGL

Some of the results follow. Further columns of the screen follow, without active or inactive calls. The list favours compounds with an active or inconclusive main result. Potencies come from curve fits of mixed quality, noted in brackets.
Tags tell the direction and shape of the fitted curve.

Chain of UniProt P21964 (P21964 whole entry, looked up): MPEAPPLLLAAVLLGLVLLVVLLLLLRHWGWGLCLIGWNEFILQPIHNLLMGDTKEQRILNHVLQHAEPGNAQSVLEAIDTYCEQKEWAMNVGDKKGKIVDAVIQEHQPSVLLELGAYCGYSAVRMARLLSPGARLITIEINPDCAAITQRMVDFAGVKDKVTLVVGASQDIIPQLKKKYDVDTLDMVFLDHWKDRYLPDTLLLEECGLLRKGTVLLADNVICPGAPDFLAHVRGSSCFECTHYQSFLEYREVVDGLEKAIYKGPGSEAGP

A word on the IC50: it is the concentration at which inhibition is half-maximal. As to `CN(C)CCCCCCNC(=O)c1cccc(-c2cc(O)c3ncccc3c2)c1`, the IC50 in assay [1] was 3.43 µM [falling, full curve]; in assay [2], 17.2 µM [falling, partial curve].
In the case of `O=C(NCc1ccc2c(c1)OCO2)c1sc(=S)n2c1[nH]c(=O)c1cc(Cl)ccc12`, the IC50 is 30.4 µM [falling, single point] in assay [1]; 42.9 µM [falling, single point] in assay [2]; 24.1 µM [falling, partial curve] in assay [3]; 34.1 µM [falling, single point] in assay [4].
Turning to `COc1ccc(-c2cnc3ccc(NCc4ccc(S(N)(=O)=O)cc4)nn23)cc1OC`, the half-inhibitory concentration (IC50) in assay [1] is 24.1 µM [falling, partial curve]; in assay [2], 24.1 µM [falling, partial curve].
`CCCc1cc2c(-c3ccccc3)cc(=O)oc2cc1OCc1ccc(C(=O)O)o1`: the IC50 was 24.1 µM [falling, partial curve] in assay [1]; 27.1 µM [falling, single point] in assay [2]; 24.1 µM [falling, partial curve] in assay [3]; 24.1 µM [falling, partial curve] in assay [4].
Consider `Cc1cccc(N2CCN(C(=O)c3ccc4c(=O)[nH]c5c(C(=O)NC(C)C)sc(=S)n5c4c3)CC2)c1C`, for which the IC50 in assay [1] is 24.1 µM [falling, partial curve]; in assay [2], 24.1 µM [falling, partial curve]; in assay [3] it was 21.5 µM [falling, partial curve]; in assay [4], 34.1 µM [falling, partial curve, poor fit].
